No constants are given. Whether binding was seen depends on the method and setting. Binding seen in cells or lysates may run through a third protein. Some entries that bind do so weakly or less than the wild type. Where a sequence is shown, tags or fusion partners need not be part of it.
T1: FLAG-tagged MED26 (human) (UniProt O95402)
T1 sequence: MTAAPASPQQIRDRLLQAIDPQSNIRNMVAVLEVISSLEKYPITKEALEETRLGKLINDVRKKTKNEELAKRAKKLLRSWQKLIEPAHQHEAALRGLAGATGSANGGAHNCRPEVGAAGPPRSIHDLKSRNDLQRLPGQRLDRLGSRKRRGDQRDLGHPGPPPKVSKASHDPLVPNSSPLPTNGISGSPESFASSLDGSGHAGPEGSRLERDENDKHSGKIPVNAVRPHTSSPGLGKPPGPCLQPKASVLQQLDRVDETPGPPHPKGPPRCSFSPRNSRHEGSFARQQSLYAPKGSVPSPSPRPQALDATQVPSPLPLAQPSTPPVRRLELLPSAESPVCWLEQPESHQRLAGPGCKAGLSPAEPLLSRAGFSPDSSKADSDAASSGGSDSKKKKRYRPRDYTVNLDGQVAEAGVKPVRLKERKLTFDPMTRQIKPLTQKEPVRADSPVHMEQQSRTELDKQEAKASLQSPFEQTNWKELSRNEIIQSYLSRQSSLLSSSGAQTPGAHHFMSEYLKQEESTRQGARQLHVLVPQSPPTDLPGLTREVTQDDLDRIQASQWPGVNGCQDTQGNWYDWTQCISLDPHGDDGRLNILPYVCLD

Amino acid sequences for entries named in this document (tags omitted).
UniProt P38432: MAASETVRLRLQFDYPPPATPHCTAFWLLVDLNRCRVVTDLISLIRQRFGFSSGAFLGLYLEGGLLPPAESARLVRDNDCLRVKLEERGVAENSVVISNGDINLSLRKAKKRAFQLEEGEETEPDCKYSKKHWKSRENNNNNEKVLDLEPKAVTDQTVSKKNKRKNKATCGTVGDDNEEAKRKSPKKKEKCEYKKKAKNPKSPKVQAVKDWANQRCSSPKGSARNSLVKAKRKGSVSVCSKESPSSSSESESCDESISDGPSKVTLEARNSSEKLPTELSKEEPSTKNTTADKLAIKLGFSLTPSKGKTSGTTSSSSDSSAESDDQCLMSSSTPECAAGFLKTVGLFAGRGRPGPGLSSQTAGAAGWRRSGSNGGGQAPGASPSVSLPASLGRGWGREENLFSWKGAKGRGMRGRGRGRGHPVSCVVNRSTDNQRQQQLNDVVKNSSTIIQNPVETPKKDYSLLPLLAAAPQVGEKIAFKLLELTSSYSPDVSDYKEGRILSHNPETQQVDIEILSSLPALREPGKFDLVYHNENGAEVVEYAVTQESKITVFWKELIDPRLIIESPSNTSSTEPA
UniProt Q96CJ1: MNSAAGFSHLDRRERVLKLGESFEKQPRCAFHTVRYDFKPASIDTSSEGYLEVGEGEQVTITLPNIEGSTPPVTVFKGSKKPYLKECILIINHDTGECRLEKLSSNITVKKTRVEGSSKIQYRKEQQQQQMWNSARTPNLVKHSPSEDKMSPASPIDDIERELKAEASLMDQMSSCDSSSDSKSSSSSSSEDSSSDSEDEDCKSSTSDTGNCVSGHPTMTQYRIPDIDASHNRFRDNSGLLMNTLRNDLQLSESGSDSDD
UniProt Q96HW7: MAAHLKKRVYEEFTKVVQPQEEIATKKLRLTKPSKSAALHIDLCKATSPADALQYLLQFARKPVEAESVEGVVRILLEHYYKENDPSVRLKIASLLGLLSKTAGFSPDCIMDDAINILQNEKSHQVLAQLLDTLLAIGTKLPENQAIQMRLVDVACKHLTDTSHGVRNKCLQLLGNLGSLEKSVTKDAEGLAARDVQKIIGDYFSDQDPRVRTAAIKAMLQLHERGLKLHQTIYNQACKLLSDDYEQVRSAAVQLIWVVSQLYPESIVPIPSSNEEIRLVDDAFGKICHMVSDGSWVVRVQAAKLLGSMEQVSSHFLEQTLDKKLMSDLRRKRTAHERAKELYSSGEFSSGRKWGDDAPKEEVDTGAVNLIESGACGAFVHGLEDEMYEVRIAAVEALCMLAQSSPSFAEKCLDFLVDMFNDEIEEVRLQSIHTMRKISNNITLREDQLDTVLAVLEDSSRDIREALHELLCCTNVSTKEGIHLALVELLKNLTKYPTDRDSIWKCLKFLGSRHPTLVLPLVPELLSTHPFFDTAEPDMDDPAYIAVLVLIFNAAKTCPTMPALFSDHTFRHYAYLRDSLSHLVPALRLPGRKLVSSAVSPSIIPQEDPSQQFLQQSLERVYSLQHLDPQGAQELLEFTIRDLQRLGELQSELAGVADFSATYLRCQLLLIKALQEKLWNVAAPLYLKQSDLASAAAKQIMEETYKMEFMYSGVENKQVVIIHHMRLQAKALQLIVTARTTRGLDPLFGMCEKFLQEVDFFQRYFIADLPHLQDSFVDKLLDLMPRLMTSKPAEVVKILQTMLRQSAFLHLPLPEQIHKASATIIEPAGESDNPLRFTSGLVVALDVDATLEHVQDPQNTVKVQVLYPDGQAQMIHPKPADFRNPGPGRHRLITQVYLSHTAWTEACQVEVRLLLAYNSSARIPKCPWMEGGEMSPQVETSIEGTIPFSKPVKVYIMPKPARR
UniProt Q9Y2F5: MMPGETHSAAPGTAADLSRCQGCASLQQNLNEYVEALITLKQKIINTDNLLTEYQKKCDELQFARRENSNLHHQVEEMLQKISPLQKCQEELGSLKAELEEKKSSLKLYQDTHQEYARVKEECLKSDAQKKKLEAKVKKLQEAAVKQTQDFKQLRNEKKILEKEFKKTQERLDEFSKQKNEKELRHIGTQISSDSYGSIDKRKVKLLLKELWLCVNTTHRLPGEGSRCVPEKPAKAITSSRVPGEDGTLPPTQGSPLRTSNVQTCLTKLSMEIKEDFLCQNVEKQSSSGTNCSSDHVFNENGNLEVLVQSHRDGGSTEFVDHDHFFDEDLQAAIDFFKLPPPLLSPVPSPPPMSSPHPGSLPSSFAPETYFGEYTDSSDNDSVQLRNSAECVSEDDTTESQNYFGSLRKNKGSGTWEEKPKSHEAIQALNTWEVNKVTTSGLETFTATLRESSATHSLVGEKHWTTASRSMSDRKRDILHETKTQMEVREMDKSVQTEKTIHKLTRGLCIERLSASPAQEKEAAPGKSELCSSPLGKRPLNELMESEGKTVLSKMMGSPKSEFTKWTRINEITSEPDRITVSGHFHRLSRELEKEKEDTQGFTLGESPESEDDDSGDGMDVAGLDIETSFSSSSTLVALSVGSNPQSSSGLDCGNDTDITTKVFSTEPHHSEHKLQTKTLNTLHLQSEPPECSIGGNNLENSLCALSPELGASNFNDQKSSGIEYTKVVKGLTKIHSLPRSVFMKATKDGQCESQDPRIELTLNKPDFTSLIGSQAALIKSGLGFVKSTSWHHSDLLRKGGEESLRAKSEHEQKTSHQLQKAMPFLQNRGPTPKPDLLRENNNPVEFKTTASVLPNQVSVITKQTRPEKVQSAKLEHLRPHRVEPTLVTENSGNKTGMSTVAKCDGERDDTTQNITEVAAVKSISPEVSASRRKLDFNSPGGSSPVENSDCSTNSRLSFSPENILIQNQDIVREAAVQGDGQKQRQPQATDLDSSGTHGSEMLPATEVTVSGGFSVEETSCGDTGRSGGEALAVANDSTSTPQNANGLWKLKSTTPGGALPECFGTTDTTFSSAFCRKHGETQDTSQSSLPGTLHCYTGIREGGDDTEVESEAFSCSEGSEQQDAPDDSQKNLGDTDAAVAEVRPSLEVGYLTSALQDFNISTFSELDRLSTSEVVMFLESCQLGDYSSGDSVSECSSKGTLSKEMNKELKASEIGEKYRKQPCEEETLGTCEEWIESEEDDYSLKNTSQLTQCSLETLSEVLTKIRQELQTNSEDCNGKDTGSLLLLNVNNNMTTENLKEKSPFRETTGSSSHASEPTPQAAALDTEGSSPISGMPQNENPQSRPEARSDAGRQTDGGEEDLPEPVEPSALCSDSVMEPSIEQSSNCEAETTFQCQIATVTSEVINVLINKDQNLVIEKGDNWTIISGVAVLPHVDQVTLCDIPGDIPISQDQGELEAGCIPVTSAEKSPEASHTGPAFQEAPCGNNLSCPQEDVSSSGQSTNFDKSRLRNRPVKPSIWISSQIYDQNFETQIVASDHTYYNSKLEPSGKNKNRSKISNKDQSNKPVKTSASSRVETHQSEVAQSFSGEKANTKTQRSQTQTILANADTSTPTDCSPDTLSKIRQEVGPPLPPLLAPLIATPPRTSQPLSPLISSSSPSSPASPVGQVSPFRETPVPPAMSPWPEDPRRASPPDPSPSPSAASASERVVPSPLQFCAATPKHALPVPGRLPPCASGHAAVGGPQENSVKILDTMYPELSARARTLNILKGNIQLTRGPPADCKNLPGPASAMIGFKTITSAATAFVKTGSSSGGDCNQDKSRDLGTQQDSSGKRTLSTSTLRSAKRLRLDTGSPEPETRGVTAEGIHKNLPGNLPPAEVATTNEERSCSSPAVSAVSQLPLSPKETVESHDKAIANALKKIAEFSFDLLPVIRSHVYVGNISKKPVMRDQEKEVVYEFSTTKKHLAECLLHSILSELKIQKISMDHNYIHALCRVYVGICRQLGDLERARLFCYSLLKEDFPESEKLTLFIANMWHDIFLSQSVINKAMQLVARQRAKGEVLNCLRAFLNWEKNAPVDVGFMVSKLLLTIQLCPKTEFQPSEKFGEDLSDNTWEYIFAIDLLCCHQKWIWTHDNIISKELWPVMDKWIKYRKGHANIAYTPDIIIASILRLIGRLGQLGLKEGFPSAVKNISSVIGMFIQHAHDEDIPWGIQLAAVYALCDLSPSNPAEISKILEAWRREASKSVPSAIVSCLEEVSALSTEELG

T2: N-terminally 6xHis- and FLAG-tagged ICE2 (UniProt Q659A1)
T2 sequence: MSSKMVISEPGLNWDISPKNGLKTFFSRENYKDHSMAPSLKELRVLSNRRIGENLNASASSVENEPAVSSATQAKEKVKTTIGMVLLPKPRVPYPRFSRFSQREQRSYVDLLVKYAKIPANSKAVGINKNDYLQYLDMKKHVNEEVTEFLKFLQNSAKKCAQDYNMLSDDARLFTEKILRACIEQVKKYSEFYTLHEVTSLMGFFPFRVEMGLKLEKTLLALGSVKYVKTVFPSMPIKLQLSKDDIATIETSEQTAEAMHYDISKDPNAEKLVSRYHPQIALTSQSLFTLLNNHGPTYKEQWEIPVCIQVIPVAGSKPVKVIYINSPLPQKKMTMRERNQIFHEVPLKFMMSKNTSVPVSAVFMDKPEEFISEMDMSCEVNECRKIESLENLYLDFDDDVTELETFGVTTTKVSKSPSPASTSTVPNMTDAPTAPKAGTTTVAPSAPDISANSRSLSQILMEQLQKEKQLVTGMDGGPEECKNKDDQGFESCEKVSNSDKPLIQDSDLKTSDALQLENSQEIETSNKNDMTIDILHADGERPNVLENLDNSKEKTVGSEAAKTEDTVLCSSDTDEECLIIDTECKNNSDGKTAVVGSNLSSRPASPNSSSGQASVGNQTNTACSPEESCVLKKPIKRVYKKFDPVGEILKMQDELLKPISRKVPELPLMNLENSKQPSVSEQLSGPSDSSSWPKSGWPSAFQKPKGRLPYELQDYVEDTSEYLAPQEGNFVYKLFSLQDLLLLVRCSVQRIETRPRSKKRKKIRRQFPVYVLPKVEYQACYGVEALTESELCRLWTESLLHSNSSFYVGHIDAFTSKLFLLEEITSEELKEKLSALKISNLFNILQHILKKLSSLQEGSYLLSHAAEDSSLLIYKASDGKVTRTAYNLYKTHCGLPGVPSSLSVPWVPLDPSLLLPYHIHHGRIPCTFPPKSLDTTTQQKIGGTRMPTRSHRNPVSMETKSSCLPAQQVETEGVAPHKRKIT

B1: NPAT (Nuclear protein, coactivator of histone transcription) (protein, UniProt Q14207 1-1427)
chain: MLLPSDVARLVLGYLQQENLISTCQTFILESSDLKEYAEHCTDEGFIPACLLSLFGKNLTTILNEYVAMKTKETSNNVPAIMSSLWKKLDHTLSQIRSMQSSPRFAGSQRARTRTGIAEIKRQRKLASQTAPASAELLTLPYLSGQFTTPPSTGTQVTRPSGQISDPSRSYFVVVNHSQSQDTVTTGEALNVIPGAQEKKAHASLMSPGRRKSESQRKSTTLSGPHSTIRNFQDPNAFAVEKQMVIENAREKILSNKSLQEKLAENINKFLTSDNNIAQVPKQTDNNPTEPETSIDEFLGLPSEIHMSEEAIQDILEQTESDPAFQALFDLFDYGKTKNNKNISQSISSQPMESNPSIVLADETNLAVKGSFETEESDGQSGQPAFCTSYQNDDPLNALKNSNNHDVLRQEDQENFSQISTSIQKKAFKTAVPTEQKCDIDITFESVPNLNDFNQRGNSNAECNPHCAELYTNQMSTETEMAIGIEKNSLSSNVPSESQLQPDQPDIPITSFVSLGCEANNENLILSGKSSQLLSQDTSLTGKPSKKSQFCENSNDTVKLKINFHGSKSSDSSEVHKSKIEINVLEPVMSQLSNCQDNSCLQSEILPVSVESSHLNVSGQVEIHLGDSLSSTKQPSNDSASVELNHTENEAQASKSENSQEPSSSVKEENTIFLSLGGNANCEKVALTPPEGTPVENSHSLPPESVCSSVGDSHPESQNTDDKPSSNNSAEIDASNIVSLKVIISDDPFVSSDTELTSAVSSINGENLPTIILSSPTKSPTKNAELVKCLSSEETVGAVVYAEVGDSASMEQSLLTFKSEDSAVNNTQNEDGIAFSANVTPCVSKDGGYIQLMPATSTAFGNSNNILIATCVTDPTALGTSVSQSNVVVLPGNSAPMTAQPLPPQLQTPPRSNSVFAVNQAVSPNFSQGSAIIIASPVQPVLQGMVGMIPVSVVGQNGNNFSTPPRQVLHMPLTAPVCNRSIPQFPVPPKSQKAQGLRNKPCIGKQVNNLVDSSGHSVGCHAQKTEVSDKSIATDLGKKSEETTVPFPEESIVPAAKPCHRRVLCFDSTTAPVANTQGPNHKMVSQNKERNAVSFPNLDSPNVSSTLKPPSNNAIKREKEKPPLPKILSKSESAISRHTTIRETQSEKKVSPTEIVLESFHKATANKENELCSDVERQKNPENSKLSIGQQNGGLRSEKSIASLQEMTKKQGTSSNNKNVLSVGTAVKDLKQEQTKSASSLITTEMLQDIQRHSSVSRLADSSDLPVPRTPGSGAGEKHKEEPIDIIKAPSSRRFSEDSSTSKVMVPPVTPDLPACSPASETGSENSVNMAAHTLMILSRAAISRTTSATPLKDNTQQFRASSRSTTKKRKIEELDERERNSRPSSKNLTNSSIPMKKKKIKKKKLPSSFPAGMDVDKFLLSLHYDE
B2: N-terminally 6xHis- and HA-tagged ELL (protein, UniProt P55199 1-621)
chain: MAALKEDRSYGLSCGRVSDGSKVSVFHVKLTDSALRAFESYRARQDSVSLRPSIRFQGSQGHISIPQPDCPAEARTFSFYLSNIGRDNPQGSFDCIQQYVSSHGEVHLDCLGSIQDKITVCATDDSYQKARQSMAQAEEETRSRSAIVIKAGGRYLGKKVQFRKPAPGATDAVPSRKRATPINLASAIRKSGASAVSGGSGVSQRPFRDRVLHLLALRPYRKAELLLRLQKDGLTQADKDALDGLLQQVANMSAKDGTCTLQDCMYKDVQKDWPGYSEGDQQLLKRVLVRKLCQPQSTGSLLGDPAASSPPGERGRSASPPQKRLQPPDFIDPLANKKPRISHFTQRAQPAVNGKLGVPNGREALLPTPGPPASTDTLSSSTHLPPRLEPPRAHDPLADVSNDLGHSGRDCEHGEAAAPAPTVRLGLPLLTDCAQPSRPHGSPSRSKPKKKSKKHKDKERAAEDKPRAQLPDCAPATHATPGAPADTPGLNGTCSVSSVPTSTSETPDYLLKYAAISSSEQRQSYKNDFNAEYSEYRDLHARIERITRRFTQLDAQLRQLSQGSEEYETTRGQILQEYRKIKKTNTNYSQEKHRCEYLHSKLAHIKRLIAEYDQRQLQAWP

Molecular target: T1, FLAG-tagged MED26 (human)
Assay: co-IP; anti-FLAG M2 agarose on nuclear extracts (with Benzonase) of wild-type or EAF1-mutant HEK293T cells stably expressing F-MED26; 2 h at 4 °C; washes 50 mM HEPES-NaOH pH 7.9, 0.15 M NaCl, 0.1% Triton X-100, 10% glycerol; FLAG peptide elution; western blotting

Molecule	binding
Coilin (from UniProt P38432 1-576)	binds
EAF1, wild type, endogenous (from UniProt Q96JC9 1-268)	binds
EAF2, endogenous (from UniProt Q96CJ1 1-260)	binds
INTS4, component of Integrator (from UniProt Q96HW7 1-963)	binds
B1	binds

Molecular target: T1, FLAG-tagged MED26 (human)
Assay: co-IP; as a2, EAF1-mutant HEK293T cells stably expressing F-MED26 (rows for what is lost or barely left in these cells)

Molecule	binding
EAF1 point mutant (positions 262 to 265 replaced by alanines), endogenous in the EAF1-point-mutant HEK293T cell line E/2-24 (from UniProt Q96JC9 1-268)	no binding

Molecular target: T2, N-terminally 6xHis- and FLAG-tagged ICE2
Assay: co-IP; reconstituted LEC: HA-ICE1, F-ICE2, HA-ELL and HA-EAF1-wt or HA-EAF1-mut co-expressed in the baculoviral expression system, purified through anti-FLAG affinity chromatography, Coomassie Brilliant Blue staining

Molecule	binding
N-terminally 6xHis- and HA-tagged EAF1 wild-type (from UniProt Q96JC9 1-268)	binds
N-terminally 6xHis- and HA-tagged ICE1 (from UniProt Q9Y2F5 1-2266)	binds
B2	binds
